Measured values taken from US20200048324A1 (SURROZEN OPERATING, published 2020).

Biological target: T1, human asialoglycoprotein receptor 1 (ASGR1) (human, UniProt P07306 1-291)
T1 sequence (looked up): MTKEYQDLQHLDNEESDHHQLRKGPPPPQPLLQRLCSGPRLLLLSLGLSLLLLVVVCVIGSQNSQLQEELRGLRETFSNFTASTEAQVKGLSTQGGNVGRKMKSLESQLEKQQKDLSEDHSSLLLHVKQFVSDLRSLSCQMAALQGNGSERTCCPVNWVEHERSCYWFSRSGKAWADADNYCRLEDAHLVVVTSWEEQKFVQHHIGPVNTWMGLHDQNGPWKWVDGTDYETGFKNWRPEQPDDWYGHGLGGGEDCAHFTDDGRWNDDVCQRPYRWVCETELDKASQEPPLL
Assay: cell-based or functional assay

STF reporter activity of purified protein, Huh-7 cells: ~3 fold
luciferase activity, Super Top Flash (STF) Wnt reporter, Huh-7 cells, transient transfection, versus mock transfection: ~20 fold
B1: anti-ASGR1, Rspo2 (F105A/F109A) (scFv)
chain: [skipping about 100 residues]DFSSRRWYLEYWGQGTLVTVSSGGGGSGGGGSGGGGSELTQDPAVSVALGQTVRITCQGDSLRSYYASWYQQKPGQAPVLVIYGKNNRPSGIPDRFSGSSSGNTASLTITGAQAEDEADYYCNSLERIGYLSYVFGGGTKLTVLGSGGSNPICKGCLSCSKDNGCSRCQQKLFFFLRREGMRQYGECLHSCPSGYYGHRAPDMNRCARCRIENCDSCASKDACTKCKVGFYLHRGRCFDECPDGFAPLEETMECVEGGDYKDDDDKGSHHHHHHHH
